# According to PubChem BioAssay AID1671194 (National Center for Advancing Translational Sciences (NCATS), 2021):
# About 240 (0.17%) of roughly 140,000 compounds were called active. The inconclusive results got no clear call from the source; some entries with a clear call stand among them for comparison. Calls follow the shape of the dose curve; as a rule, active = well fitted inhibition curve with a large enough effect; inconclusive = small, poorly fitted or top-dose-only effect; inactive = no such curve, though single readings can be large or run the other way. Potencies of inconclusive entries are doubtful fits and often do not repeat.
# Assay: Primary qHTS assay for inhibitors of alpha-synuclein gene (SNCA) expression; also: nearly all actives have a fitted effect of over 45% in size
# Details: HEK-293 SNCA-luciferase knock-in, luminescence, 24 h; series mostly up to 57.2 µM
# Potency is read from the fitted curve at half-maximal effect; tags tell the direction and shape of the fitted curve.
row,Compound,Potency
1,COc1ccc(CN2CC(c3nc(Cc4cccnc4)no3)C2)c(OC)c1,"inconclusive: 39.8 µM [inhibitor, single point]"
2,CCc1nn(-c2ccccc2)c(Oc2cccc(C)c2)c1CCC(=O)N1CCOCC1,"inconclusive: 0.708 µM [inhibitor, full curve, poor fit]"
3,COc1cccc([S+](=O)([O-])N2CCC(c3nnc4n3C(C(=O)O)CC4)CC2)c1 (configuration not stated),inactive
4,CC(C)(C)c1nnc2n1C(C(=O)N1CCCC1)CC2 (configuration not stated),inactive
5,Cn1ncc2c(C(=O)NCCCc3ccccc3)cc(-c3ccc([S+](C)(=O)[O-])cc3)nc21,inactive
6,CCc1cccc(NC(=O)Cn2c(=O)n(Cc3ccccc3)c(=O)c3c2c2cc(OC)ccc2n3C)c1,"inconclusive: 39.8 µM [inhibitor, single point]"
7,CCc1nc(-c2c3n(c(=O)n(CC(=O)Nc4cc(C)on4)c2=O)CCCC3)no1,"inconclusive: 3.55 µM [inhibitor, full curve, poor fit]"
8,CC(=O)Oc1c(-c2ccc(NC(=O)c3ccco3)cc2)c(C2CC2)nn1-c1cccc(C)c1,inactive
9,CCN1c2cc(C(N)=O)ccc2C(=O)N2CCCCC21 (configuration not stated),inactive
10,Cc1ccc(S(=O)(=O)NCCc2cn3c(C)csc3n2)cc1,"inconclusive: 3.98 µM [inhibitor, partial curve, poor fit]"
11,COc1ccc(-c2nnc(C3CCN(C(=O)c4ccccc4F)CC3)o2)cc1,"inconclusive: 11.2 µM [inhibitor, partial curve, poor fit]"
12,CC(=O)N1CC2(CCN(CCc3ccccn3)CC2)CC1C(=O)O (configuration not stated),"inconclusive: 0.708 µM [inhibitor, partial curve, poor fit]"
13,C[C@@H]1CN(Cc2nc3c(n2Cc2ccccc2)C(=O)N(Cc2ccccc2F)CCN3)C[C@H](C)O1,inactive
14,CC(C)(O)CCc1cccc(C(=O)NC2CCN(c3ncccc3C#N)CC2)c1,"inconclusive: 39.8 µM [inhibitor, single point]"
15,CCc1ccc(CNCc2c(C(=O)O)n(Cc3cccc(F)c3)c3cc(OC)ccc23)cc1,"inconclusive: 15.8 µM [inhibitor, partial curve, poor fit]"
16,CC(C)NC(=O)N1Cc2[nH]cnc2C[C@H]1c1nc(-c2ccccc2)no1,inactive
17,Cc1cccc(NC(=O)c2c(NC(=O)C(F)(F)F)sc3c2CCCCC3)c1,"inconclusive: 4.47 µM [inhibitor, full curve, poor fit]"
18,CCOC(=O)c1cccc(Nc2c3c(nc4ccccc24)CCC3)c1,"inconclusive: 10 µM [inhibitor, partial curve]"
19,Cc1ccc(C(=O)N2CCC3(CC2)CC(N(Cc2ccccc2)C2CC2)CCO3)cc1F (configuration not stated),inactive
20,CS(=O)(=O)c1cnc(NCc2ncc[nH]2)nc1C1CCCNC1 (configuration not stated),inactive
21,COc1cccc(NC(=O)N[C@H]2C[C@@H](c3nc(C)no3)N(C)C2)c1,inactive
22,O=C(c1ccccc1C1CCNC1)N1CCN(C/C=C/c2ccccc2)CC1 (configuration not stated),inactive
23,O=C(c1ccc(C(F)(F)F)cc1)N1CCCC(c2nn(-c3ccccn3)c(=O)[nH]2)C1 (configuration not stated),"inconclusive: 3.16 µM [inhibitor, partial curve, poor fit]"

row,Compound,Potency
1,COCCNC(=O)CCCN1C(=O)COc2ccc(C(=O)COc3ccc(C)cc3OC)cc21,"inconclusive: 10 µM [inhibitor, partial curve, poor fit]"
2,O=C(c1cccc(Br)c1)N1CCN(C2CCN(Cc3ccccn3)C2=O)CC1 (configuration not stated),"inconclusive: 3.98 µM [inhibitor, single point]"
3,COc1ccc(OC)c(CN2CCCn3nc(C)c(-c4ccccc4C(C)C)c32)c1,"inconclusive: 56.2 µM [inhibitor, single point]"
4,COC(=O)C1=C(C)N=C2SC=C(CC(=O)NCc3ccccc3)N2C1c1ccccc1F (configuration not stated),"inconclusive: 22.4 µM [inhibitor, partial curve]"
5,CN1CCCCCC(O)c2cc(C(=O)NCCc3c[nH]c4ccccc34)ccc21 (configuration not stated),inactive
6,CC1(C)[C@H](Cc2cc(CC3CCCCC3)on2)C[C@@H]1NC(=O)c1ccccc1,"inconclusive: 20 µM [inhibitor, partial curve, poor fit]"
7,COc1ccc(-c2noc([C@@H]3C[C@H](NS(=O)(=O)c4ccc5ccccc5c4)CN3C)n2)cc1,inactive
8,CC1(COc2ccccc2)COc2ccc(C(=O)NCCc3ccccc3)cc2N1 (configuration not stated),inactive
9,O=C(Nc1ccc([C@@H](O)[C@H]2COCC(=O)N2Cc2ccc(F)cc2)cc1)c1ccccc1,"inconclusive: 56.2 µM [inhibitor, single point]"
10,CCc1cccc(C)c1NC(=O)Cn1c(C)cc2nc3n(c(=O)c21)CCCCC3,"inconclusive: 8.91 µM [inhibitor, single point]"
11,CC(C)c1cc(NCC2CCCCCN2)nc(N)n1 (configuration not stated),"inconclusive: 44.7 µM [inhibitor, partial curve, poor fit]"
12,COc1ccc(-n2nc3c(N4CCCC(C(=O)NCc5cccc(F)c5)C4)nnc(C)c3c2C)cc1 (configuration not stated),"inconclusive: 2 µM [inhibitor, full curve]"
13,CN(C)c1cc(N2CCCC(NC(=O)c3cccs3)C2)ncn1 (configuration not stated),inactive
14,COc1ccccc1C(=O)NCc1c[nH]c2ncccc12,"inconclusive: 3.55 µM [inhibitor, partial curve, poor fit]"
15,COc1ccc(C(=O)NCc2nnc3ccc(-c4ccc(C)c(C)c4)nn23)cc1F,"inconclusive: 39.8 µM [inhibitor, single point]"
16,COc1ccc(Cn2c(C(=O)O)c(CNCCc3cccs3)c3ccc(C)cc32)cc1,"inconclusive: 31.6 µM [inhibitor, single point]"
17,CC(C)(C)C(=O)NCCc1nc2ccccc2n1CCCCOc1ccc(Cl)cc1,"inconclusive: 25.1 µM [inhibitor, single point]"
18,CN1CC(C(=O)N2CCC(Cc3ccccc3)CC2)NC1=O (configuration not stated),inactive
19,Cc1ccc(NS(=O)(=O)c2ccc3nc(-c4ccccc4)[nH]c3c2)c(Cl)c1,"inconclusive: 39.8 µM [inhibitor, single point]"
20,O=C(Oc1ccc(F)cc1)c1nc(SCc2ccccc2F)ncc1Cl,inactive
21,O=C(NCc1ccc(F)c(F)c1)C1CCc2nnc(C3CC3)n21 (configuration not stated),inactive
22,Cc1ccc(C)c(Nc2nc3c(S(=O)(=O)c4ccc(C(C)C)cc4)nnn3c3ccsc23)c1,"inconclusive: 25.1 µM [inhibitor, single point]"
23,C[C@H](O)c1onc(-c2ccc(F)cc2)c1C(=O)NC1CCCC1,"inconclusive: 12.6 µM [inhibitor, single point]"

row,Compound,Potency
1,O=C1CCCCC(C(=O)N2CC=C(c3ccccc3)CC2)N1 (configuration not stated),inactive
2,c1ncc(-c2ccc3c(c2)OCO3)c(NCCc2cnc[nH]2)n1,"inconclusive: 39.8 µM [inhibitor, single point]"
3,CN1CCN(C(=O)C(C)(C)Oc2nn(Cc3cccc(Cl)c3)c3ccccc23)CC1,"inconclusive: 50.1 µM [inhibitor, single point]"
4,CS(=O)(=O)N1CCC(C2CCN(C(=O)Cc3ccc(F)cc3)C2)CC1 (configuration not stated),"inconclusive: 31.6 µM [inhibitor, single point]"
5,Cc1cn2nc(C(=O)N3CCC(NC(=O)c4ccc(C#N)cc4)CC3)cc2c(=O)[nH]1,"inconclusive: 0.708 µM [inhibitor, full curve, poor fit]"
6,Cc1cc(C)c(CNC(=O)c2nc(-c3ccc(CN(C)C)cc3)cc3c2ccn3C(C)C)c(=O)[nH]1,inactive
7,COc1ccccc1CNC(=O)C1CCN(c2nccc(Nc3ccccc3F)n2)CC1,inactive
8,N#Cc1cccc(-c2ccnc(N[C@H]3CO[C@H]4[C@@H]3OC[C@H]4OC(=O)Nc3cccc4ccccc34)n2)c1,"inconclusive: 39.8 µM [inhibitor, single point]"
9,O=C(NCc1ccco1)N1CCc2nc3cc(-c4ccccc4Cl)[nH]n3c(=O)c2C1,"inconclusive: 1.26 µM [inhibitor, full curve, poor fit]"
10,Cc1noc(C2CCCCCN2C(=O)Nc2ccccc2)n1 (configuration not stated),"inconclusive: 14.1 µM [inhibitor, partial curve, poor fit]"
11,O=C(CCc1ccccc1)N1CCN(c2cc(-c3cccs3)[nH]n2)CC1,inactive
12,CCN1c2cc(C(=O)Nc3ccc(C(C)C)cc3)ccc2C(=O)N2CCCCC21 (configuration not stated),"inconclusive: 15.8 µM [inhibitor, partial curve, poor fit]"
13,Fc1cc(Br)ccc1Nc1c2c(nc3nc(-c4cccs4)nn13)CCCC2,"inconclusive: 17.8 µM [inhibitor, single point]"
14,CNC(=O)c1cc(Nc2nnc(-c3ccc(O)cc3)c3ccccc23)ccc1OC,inactive
15,CCNC(=O)N1CCC(Cc2ccc(C(=O)N3CCN(c4ccccc4)CC3)cc2)CC1,"inconclusive: 8.91 µM [inhibitor, single point]"
16,C[C@@H](c1ccccc1)N1C(=O)[C@@H]2CN(C(=O)c3ccco3)CCN2C1=O,inactive
17,CCn1ncc(CN2CCCCCNC(=O)CC2c2ccccc2)c1C (configuration not stated),"inconclusive: 7.08 µM [inhibitor, single point]"
18,CCOc1ccc(C(=O)N2CCCN(c3cc(-c4ccc(Cl)cc4)[nH]n3)CC2)cc1OCC,"inconclusive: 20 µM [inhibitor, partial curve, poor fit]"
19,COCC(=O)N1CCc2nc(C)nc(-c3ccc(OC)cc3)c2C1,inactive
20,Fc1ccc(-c2cc(CC3(NCc4ccco4)COC3)no2)cc1,inactive
21,CCN1CC(C(=O)N2CCCC(c3ccccc3)(c3ccccc3)C2)CC1=O (configuration not stated),inactive
